Source: PubChem BioAssay AID1240 (Sanford-Burnham Center for Chemical Genomics, 2008)
The whole screen tested about 50,000 compounds, of which about 800 (1.6%) showed an effect of 50% or more. The list shows a part of the results.

Each compound was assayed against Bcl-2-like protein 10 (Homo sapiens) (UniProt Q9HD36) (assay: TR3 peptide-Bcl-B binding displacers, biochemical primary FP assay, phenotype converters (AID 1240;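 further: 0% = Bcl-B with tracer peptide and DMSO and 100% = tracer peptide lacking Bcl-B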)). Details: GST-Bcl-B / FITC-TR3 peptide fluorescence polarization; stronger effect = higher value; compound at 3.75 mg/L.
Sequence of UniProt Q9HD36 (Q9HD36 whole entry, looked up): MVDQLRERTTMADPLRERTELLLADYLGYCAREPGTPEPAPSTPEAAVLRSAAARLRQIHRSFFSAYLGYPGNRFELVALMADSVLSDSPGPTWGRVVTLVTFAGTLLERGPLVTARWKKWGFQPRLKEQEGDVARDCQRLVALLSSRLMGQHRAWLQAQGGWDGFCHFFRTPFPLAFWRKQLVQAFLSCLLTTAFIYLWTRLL
In the case of `COc1ccc(C(=O)N2CCN(C3CCCCC3)CC2)cc1OC`, the displacement was -0.7%.
`Cc1c(NC(=O)c2cccs2)cccc1-c1nc2ncccc2o1` was tested, and the displacement was 3.8%.
`Cc1nc2ccccc2n1-c1ccccc1` showed a displacement of 8.4%.
Work on `CCOC(=O)c1ccc(NS(=O)(=O)c2cccs2)cc1` yielded a displacement of 3.9%.
`Cn1c(/C(C#N)=C/c2cccc([N+](=O)[O-])c2O)nc2ccccc21` showed a displacement of 7.5%.
`C=CCOc1ccc(C=C2C(=O)N(C)C(=O)N(C)C2=O)cc1OC` gave a displacement of 14.7%.
With `COc1ccc(Cl)cc1N(CC(=O)NCCSc1ccccn1)S(=O)(=O)c1ccccc1` the displacement was 17.7%.
With `CCOc1ccc(N2C(=O)S/C(=C\c3ccc(C)cc3)C2=O)cc1` the displacement was -5.8%.
With `COc1cc(Br)c(/C=C2\C(=O)NC(=S)N(c3ccccc3)C2=O)cc1OC` the displacement was 3.7%.
`CN(C)c1ccc(-c2nc3cc(NC(=O)c4ccccc4Br)ccc3o2)cc1` gave a displacement of 1.6%.
`Cc1cccc(OC(=O)NCCOC(=O)N(O)c2ccc(Cl)cc2)c1` gave a displacement of 6.7%.
`O=S(=O)(Nc1ccc(N2CCCCC2)cc1)c1ccc(Cl)cc1` showed a displacement of -22%.
Work on `O=C(NCCCO)C(=O)Nc1nc(C23CC4CC(CC(C4)C2)C3)cs1` yielded a displacement of -50.2%.
With `COc1ccc(NC(=S)NC(=O)C23CC4CC(CC(C4)C2)C3)cc1` the displacement was -9.8%.
`C/C(=N\N1CCN(Cc2ccccc2Cl)CC1)c1ccccc1O` was tested, and the displacement was 13.5%.
`CCN(CC)c1ccc(N=Cc2c(O)[nH]c(=S)[nH]c2=O)cc1` gave a displacement of 12.9%.
Compound `O=C1CSC(c2ccccc2)N1/N=C/c1ccccc1` (stereo not drawn) has a displacement of 2%.
In the case of `O=c1[nH]c(-c2ccc(O)c(Br)c2)nc2sc3c(c12)CCCC3`, the displacement was -26.2%.
For `O=c1[nH]c(-c2cccc(O)c2)nc2sc3c(c12)CCCC3`, the displacement was -12.3%.
With `O=c1cc(O)c2ccccc2n1Cc1ccccc1` the displacement was -4.8%.
`Cc1ccc(/C=N/NC(=O)c2ccco2)o1` was tested, and the displacement was 18.4%.
`Fc1ccc(-c2nnn(Cc3c(F)cccc3Cl)n2)cc1` gave a displacement of -6.4%.
In the case of `O=C(O)c1cc(S(=O)(=O)N2CCCCCC2)c(Cl)cc1Cl`, the displacement was 5.7%.
Work on `Cn1c(=O)c(N)c2c3c(cccc31)C(=O)c1ccccc1-2` yielded a displacement of 154%.
With `Cc1nnc(SCC(=O)n2c3c(c4ccccc42)CCCC3)s1` the displacement was -10.9%.
In the case of `COc1ccc(/C=N/Nc2nc3ccccc3[nH]2)c2c(OC)cccc12`, the displacement was -24.8%.
With `Cc1n[nH]c(C)c1Sc1ccccc1N=Cc1ccccc1` the displacement was 7.2%.
`Clc1ccc(-c2noc(-c3ccc(Br)cc3)n2)cc1` was tested, and the displacement was 3.3%.
For `CCCCN(CCCC)C(=O)c1ccccc1`, the displacement was 12.1%.
In the case of `NC(=O)c1nn2c(c1Cl)NC(c1cccs1)CC2C(F)(F)F` (stereo not drawn), the displacement was 7.7%.
Compound `COC(=O)C1=C(C)N(C)C(=O)/C1=C\c1cccs1` has a displacement of -9.1%.
`Cc1ccc(-n2c(-c3ccccc3F)nc3c(cnn3-c3ccccc3)c2=O)cc1` showed a displacement of 0.3%.
Work on `Cc1cc2oc(=O)cc(C)c2cc1NC(=O)/C=C/C(=O)O` yielded a displacement of 34.7%.
`CN(CCN(C)/N=C/c1cc(Cl)ccc1O)/N=C/c1cc(Cl)ccc1O` was tested, and the displacement was -1.2%.
For `CC(C)c1ccc(NC(=O)CCN2C(=O)c3ccccc3C2=O)cc1`, the displacement was -23.2%.
With `O=C1NC(=O)/C(=C\c2cc(Br)ccc2OCc2ccc(F)cc2)S1` the displacement was -5.3%.
`Cc1ccc(C(=O)O/N=C(\N)c2ccccn2)cc1` showed a displacement of -3.5%.
Work on `COc1cc(/C=N/Nc2nncc(=O)[nH]2)ccc1O` yielded a displacement of -2.8%.
`CCCOc1ccc(Cc2c(O)nc(N)[nH]c2=O)cc1C` gave a displacement of 5.2%.
Compound `O=c1[nH]c2ccc(Br)cc2c(-c2ccc(Cl)cc2)c1N1CCOCC1` has a displacement of 12%.
Work on `O=[N+]([O-])c1ccc(N2N=C(c3ccccc3)CC2c2ccccc2O)cc1` (stereo not drawn) yielded a displacement of -4.9%.
With `Nc1ccc(Oc2ccc(N)c(N)c2)cc1` the displacement was 2.7%.
`COc1ccc(OC)c(NC(=O)/C=C/c2ccc(Cl)cc2Cl)c1` was tested, and the displacement was 7.3%.
Work on `COc1ccc2oc(=O)c(-c3ccc(I)cc3)cc2c1` yielded a displacement of 1.2%.
`CCOc1ccc(C(=O)Nc2ccc(Cc3ccncc3)cc2)cc1Cl` gave a displacement of -11.5%.
`CCOc1ccc(C(=O)Nc2ccc3oc(-c4ccccc4Cl)nc3c2)cc1` was tested, and the displacement was 13.2%.
`O=C(CC(c1ccccc1)c1ccccc1)N1CCN(Cc2ccccc2)CC1` was tested, and the displacement was 18%.
`CC(=O)c1cccc(Nc2ncnc3ccc(C)cc23)c1` showed a displacement of 10.3%.
`Cc1ccc(NC(=O)C(C)Sc2ccc(Cl)cc2)cc1` (stereo not drawn) gave a displacement of 3%.
`O=[N+]([O-])c1cc(-c2nnc(-c3ccco3)o2)ccc1Cl` was tested, and the displacement was 2.1%.
`COc1ccc(S(=O)(=O)NCCc2ccccc2)cc1` gave a displacement of 0.6%.
`Cc1cc(C)c(NS(=O)(=O)c2cccc([N+](=O)[O-])c2)c(C)c1` showed a displacement of -9.2%.
Work on `C(=C(\c1ccccc1)c1nc2ccccc2[nH]1)/c1ccccc1` yielded a displacement of 3%.
`O=C(Cc1ccc([N+](=O)[O-])cc1)N/N=C/c1c2ccccc2cc2ccccc12` was tested, and the displacement was 2.7%.
In the case of `CCC(Oc1ccccc1)C(=O)Nc1cc(Cl)ccc1OC` (stereo not drawn), the displacement was -11.1%.
With `Cc1nnc(N/N=C/c2ccccc2OCc2ccccc2)[nH]c1=O` the displacement was -10%.
`O=C(c1ccc([N+](=O)[O-])cc1)N1CCSC1c1ccc2c3c(cccc13)CC2` (stereo not drawn) was tested, and the displacement was 12%.
For `CC1(C)CC(=O)C2=C(C1)OC(c1ccccc1)=CC2c1ccccc1` (stereo not drawn), the displacement was 6.3%.
Compound `O=C(O)CN=C(NS(=O)(=O)c1ccc(Cl)cc1)c1ccccc1` has a displacement of 1.1%.
Work on `O=[N+]([O-])c1cccc(C2CC(c3ccccc3)=NN2c2ccccc2)c1` (stereo not drawn) yielded a displacement of -0.2%.
`CCOc1ccc(N(Cc2ccc(C(=O)N3CCCC3)cc2)S(=O)(=O)c2ccc(C)cc2)cc1` was tested, and the displacement was -11.6%.
`O=C(COc1ccc2ccccc2c1)Nc1ccccc1C(=O)Nc1ccccc1` showed a displacement of 1.7%.
Work on `CCc1ccccc1NC(=O)CN(c1ccccc1)S(=O)(=O)c1ccccc1[N+](=O)[O-]` yielded a displacement of -5%.
For `COc1cc(OC)c(NS(=O)(=O)c2ccc(F)cc2)cc1Cl`, the displacement was -5.7%.
In the case of `COc1cccc(-c2nc(-c3cccnc3)no2)c1`, the displacement was 1%.
`Cc1nn(-c2ccccc2)c(N2CCCCC2)c1/C=N/O` gave a displacement of 5.7%.
With `CCn1c(SC)nc2sc3c(c2c1=O)CCCC3` the displacement was -7.5%.
In the case of `CC(C)N(C(=O)C1CCCCC1C(=O)O)C(C)C` (stereo not drawn), the displacement was -3.7%.
`Cc1onc(-c2ccccc2)c1C(=O)Nc1ccc(Cl)cc1Cl` showed a displacement of 2.8%.
`Cc1ccc(N(CC(=O)Nc2cccc3ccccc23)S(=O)(=O)c2ccccc2)cc1` showed a displacement of 8.7%.
In the case of `O=C(/C=C/Nc1cc(Cl)cc(Cl)c1)c1ccccc1`, the displacement was -3.9%.
For `O=c1[nH]cnc(O)c1C(c1ccc2c(c1)OCO2)c1c(O)nc[nH]c1=O`, the displacement was 4.9%.
With `Cc1ccc2c(c1)c1c(n2C)C(NC(N)=O)CCC1` (stereo not drawn) the displacement was 1.1%.
